From PubChem BioAssay AID1030 (National Center for Advancing Translational Sciences (NCATS), 2008)
The whole screen tested about 220,000 compounds, of which about 16,000 (7.3%) were called active. Inconclusive results, whose numbers are uncertain, are shown with a selection of clear calls. Calls come from the whole dose curve; as a rule, active = well fitted inhibition curve with a large enough effect (not every such curve was filed as active); inconclusive = small, poorly fitted or top-dose-only effect, or another doubt; inactive = no such curve, though single readings can be large or run the other way. Potencies of inconclusive entries are left out as doubtful fits.

Biological target: Aldehyde dehydrogenase 1A1 (Homo sapiens) (UniProt P00352)
Assay: qHTS Assay for Inhibitors of Aldehyde Dehydrogenase 1 (ALDH1A1);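 for activity, negative = inhibition: plate controls were no enzyme wells and a reference inhibitor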
Conditions: Purified ALDH1A1, NADH fluorescence, propionaldehyde substrate; series mostly up to 75.3 µM
Potency is the fitted concentration of half-maximal effect; tags give direction and shape of the fitted curve.

Chain of UniProt P00352 (P00352 whole entry, looked up): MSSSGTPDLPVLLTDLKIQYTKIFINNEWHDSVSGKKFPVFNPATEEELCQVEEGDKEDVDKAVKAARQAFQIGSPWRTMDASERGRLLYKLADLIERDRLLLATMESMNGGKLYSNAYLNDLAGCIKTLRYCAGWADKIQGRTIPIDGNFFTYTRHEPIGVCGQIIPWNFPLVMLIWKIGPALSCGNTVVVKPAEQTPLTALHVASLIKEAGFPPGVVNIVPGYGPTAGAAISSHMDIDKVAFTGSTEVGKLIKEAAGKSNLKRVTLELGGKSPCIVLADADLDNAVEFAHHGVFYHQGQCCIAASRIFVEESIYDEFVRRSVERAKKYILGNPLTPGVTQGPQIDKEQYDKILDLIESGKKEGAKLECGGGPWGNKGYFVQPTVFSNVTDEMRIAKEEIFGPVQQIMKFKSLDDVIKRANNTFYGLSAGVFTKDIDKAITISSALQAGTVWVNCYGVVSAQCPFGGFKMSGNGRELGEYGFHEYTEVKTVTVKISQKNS

| SMILES | activity, negative = inhibition | Potency |
| --- | --- | --- |
| c1ccc(SC(Sc2ccccc2)c2ccc3c(c2)OCO3)cc1 | inactive: 0.478% [at 13.5 µM] |  |
| COCCOC(=O)C1=C(C)NC(=O)NC1/C=C/c1ccccc1 (centres undefined) |  | inactive |
| O=C(Nc1ccc([N+](=O)[O-])cc1)C1CC12CCC2 (centres undefined) |  | inconclusive [inhibitor, single point] |
| c1ccc(-c2nnc3sc(-c4csc5c4CCCC5)nn23)cc1 |  | active: 7.94 µM |
| O=C(c1ccc(-n2cccn2)cc1)N1CCc2c([nH]c3ccccc23)C1c1ccccn1 (centres undefined) |  | inactive |
| Cc1ccccc1Nc1nc(N)nc(COC(=O)c2cccc(S(=O)(=O)N(C)C)c2)n1 |  | inactive |
| O=S(=O)(NCc1cccnc1)c1ccc(Br)s1 |  | inconclusive [inhibitor, single point] |
| COc1ccccc1-c1cn[nH]c(=S)n1 |  | active: 7.08 µM |
| CC(=O)OCCSc1c(-c2ccccc2)c2cc(Cl)ccc2[nH]c1=O |  | active: 14.1 µM |
| CC(C)NC(=O)CC(=O)N/N=C/c1cccs1 |  | inconclusive [inhibitor, partial curve] |
| C=CCN(C(=O)CNC(=O)c1ccco1)C(C(=O)NC1CCCCC1)c1ccc(OC)cc1OC (centres undefined) |  | inactive |
| COc1ccc(/C=C/C(=O)c2sc(-c3ccc(Cl)cc3)nc2C)cc1 |  | inconclusive [inhibitor, partial curve, poor fit] |
| Cc1cc(-c2nc(C)c(C(=O)NNS(=O)(=O)c3cccc(C(F)(F)F)c3)s2)no1 |  | inactive |
| CNC(=S)N(CCc1ccccc1)Cc1cc2cc(OC)c(OC)cc2[nH]c1=O |  | inconclusive [inhibitor, partial curve] |
| CC(C)Cc1nc2oc3c(=O)[nH]cnc3c2c2c1CCC2 |  | inconclusive [inhibitor, single point] |
| O=C(CC(c1ccccc1)c1ccccc1)NCCO |  | inactive |
| CCCCC(=O)Nc1cc(Cl)ccc1C(=O)O |  | inconclusive [inhibitor, single point] |
| C/C(CC(=O)Nc1cccc(C(F)(F)F)c1)=N\NC(=O)C1CCCCC1 |  | inconclusive [inhibitor, partial curve] |
| O=C(/C=C/c1ccccc1)NC(=S)Nc1ccc(CN2CCOCC2)cc1 |  | inconclusive [inhibitor, single point] |
| COc1ccc(C(C#N)Nc2ccccc2C)cc1 (centres undefined) |  | inconclusive [inhibitor, full curve] |
| Cc1ccc(C(=O)O/N=C2\CC3CCC2(C)C3(C)C)cc1 (centres undefined) |  | active: 12.6 µM |
| COc1ccc(-c2cc(-c3nnc(COC(=O)CC4CC5CCC4C5)o3)c3ccccc3n2)cc1OC (centres undefined) |  | inconclusive [inhibitor, single point] |
| NC(=O)c1sc2nc(N3CCOCC3)c3c(c2c1N)CCCC3 |  | inconclusive [inhibitor, partial curve] |
| CC(C)(C)C(=O)NCCc1nc2ccccc2n1CC(=O)c1ccc(Cl)cc1 |  | inconclusive [inhibitor, single point] |
| O=C(NC1CCCC1)C(c1ccncc1)N(Cc1cccs1)C(=O)c1csnn1 (centres undefined) |  | active: 3.55 µM |

| SMILES | activity, negative = inhibition | Potency |
| --- | --- | --- |
| CCCCN1C(=O)/C(=C/C=C2\Oc3ccccc3N2CC)SC1=S |  | inconclusive [inhibitor, partial curve] |
| CCCC(=O)N1CCN(c2ccc(NC(=O)c3ccc(OCC)c([N+](=O)[O-])c3)cc2)CC1 |  | inactive |
| CS(=O)(=O)c1nc(-c2ccco2)cc(C(F)(F)F)n1 |  | inconclusive [inhibitor, single point] |
| CC(=O)N1N=C(c2ccccc2O)OC1(C)CC(=O)Nc1ccccc1 (centres undefined) |  | inconclusive [inhibitor, single point] |
| COc1cccc(C(=O)N=c2sc3cc(S(C)(=O)=O)ccc3n2C)c1 |  | inconclusive [inhibitor, single point] |
| CCOc1ccc(S(=O)(=O)Nc2ccc(S(=O)(=O)N3CCCC3)cc2)cc1 |  | active: 3.16 µM |
| O=C(N/N=C\c1ccccn1)C1COc2cc3ccccc3cc2O1 (centres undefined) |  | inconclusive [inhibitor, partial curve, poor fit] |
| CN(c1cccc(Cl)c1)S(=O)(=O)c1cccc(C(=O)NC2=NCCS2)c1 |  | inactive |
| COc1ccccc1-c1c(C#N)c(SCC(=O)N2CCCC2)nc(C)c1C(N)=O |  | inconclusive [inhibitor, single point] |
| CC(C)c1ccc(S(=O)(=O)N2CCN(C(=O)c3ccco3)CC2)cc1 |  | inconclusive [inhibitor, partial curve] |
| COc1ccc2nc(Nc3nc(C)c(C(C)=O)s3)sc2c1 |  | inconclusive [inhibitor, partial curve] |
| COCC1CCCN(Cc2cn[nH]c2-c2cc3ccccc3o2)C1 (centres undefined) |  | inactive |
| CCOC(=O)Cc1cc(=O)[nH]c(/N=C(\N)Nc2ccc(C)cc2C)n1 |  | inactive |
| CC(C)=CCOc1ccc(/C=C/C(=O)c2ccc(OCC=C(C)C)cc2OCC(=O)O)cc1 |  | inactive |
| Cc1ccc(CN2CCN(Cc3ccc(O)cc3)CC2CCO)o1 (centres undefined) |  | inconclusive [inhibitor, single point] |
| COc1ccc(S(=O)(=O)Nc2cc(C(=O)NC3CCCCCC3)ccc2N2CCOCC2)cc1 |  | active: 3.55 µM |
| C[C@@H]1CN(CCCn2c3ccccc3c3ccccc32)C[C@H](C)N1 |  | inconclusive [inhibitor, single point] |
| Cc1cccc(NC(=S)NNC(=S)NCc2ccccc2)c1 |  | active: 1.58 µM |
| CN1CC2([N+](=O)[O-])CC=C(OCCO)C([N+](=O)[O-])(C1)C2 (centres undefined) |  | inactive |
| CC(=O)NC(c1ccccc1)c1c(O)ccc2ccccc12 (centres undefined) |  | inconclusive [inhibitor, single point] |
| Cn1cccc1Cc1nnc(SCC(=O)N2CCCC2)n1CCc1ccccc1 |  | inconclusive [inhibitor, single point] |
| O=C(NCCCn1ccnc1)C(Cc1ccccc1)N1C(=O)c2ccccc2C1=O (centres undefined) |  | inconclusive [inhibitor, single point] |
| Cc1ccc(-c2cc(C(=O)NCC3CCCO3)no2)cc1 (centres undefined) |  | inconclusive [inhibitor, single point] |
| COc1cccc(-c2cc(C(=O)N3CC4(C)CC3CC(C)(C)C4)no2)c1 (centres undefined) |  | active: 12.6 µM |
| CCN(CC)CCN1C(=O)c2ccccc2NC1c1ccc(F)cc1 (centres undefined) |  | inconclusive [inhibitor, partial curve] |

| SMILES | activity, negative = inhibition | Potency |
| --- | --- | --- |
| Cc1cccc(NC(=O)c2cc(=O)n(Cc3ccccc3)c(=O)[nH]2)c1 |  | inconclusive [inhibitor, single point] |
| N#CC1=C(SCC(=O)Nc2cccc3cccnc23)NC(=O)C(C#N)C12CCCCC2 (centres undefined) |  | active: 8.91 µM |
| Cc1cccc(NC(=O)C2CC(=O)n3cnnc3S2)c1 (centres undefined) |  | active: 0.708 µM |
| CCSC1=N/C(=C\c2ccc(OC)cc2)C(=O)N1 |  | active: 9.46 µM |
| CC(=O)c1cc2c(C)c(C(=O)c3ccccc3)oc2cc1O |  | inconclusive [inhibitor, single point] |
| Cc1ccc(-n2c(O)c(/C=N/NC(=O)C3COc4ccccc4O3)c3ccccc3c2=O)cc1 (centres undefined) |  | inconclusive [inhibitor, single point] |
| O=C(OCc1cccc([N+](=O)[O-])c1)c1ccc2ccccc2n1 |  | inconclusive [inhibitor, single point] |
| O=c1nc2ccccc2c2n1C[C@H](CN1CCN(c3ccccc3)CC1)N2 |  | inactive |
| CCN(CC)C(=O)C1=C(C)Nc2nnnn2C1c1cccnc1 (centres undefined) |  | inactive |
| N#CC1=C(N)C(C#N)(C#N)C(c2ccc[nH]2)C2CCCC=C12 (centres undefined) |  | inconclusive [inhibitor, single point] |
| Cc1cccc(OCCN2C(=O)c3ccccc3C2=O)c1 |  | inactive |
| O=C(CN1CCCCC1)N1N=C(c2cccs2)CC1c1cccs1 (centres undefined) |  | inconclusive [inhibitor, single point] |
| C=CCNc1nc(N2CCOCC2)c(C#N)c2c1CN(C)CC2 |  | inconclusive [inhibitor, single point] |
| Cc1ccc(-c2nnc(N3CCN(C(=O)c4ccco4)CC3)c3ccccc23)cc1 |  | active: 14.1 µM |
| COC(=O)C1=C(C)NC(C)=C(C(=O)OC)C1c1ccc(-c2cccc(Cl)c2Cl)o1 |  | inconclusive [inhibitor, single point] |
| CCOc1ccc2[nH]c(=S)[nH]c2c1 |  | inconclusive [inhibitor, single point] |
| CCOc1cc(C=O)ccc1OCCSc1ccc(C)cc1 |  | inconclusive [inhibitor, partial curve] |
| COc1ccccc1NC(=O)C1=C(C)NC(=O)NC1c1cc(C)cs1 (centres undefined) |  | inactive |
| COc1cc(C(=O)N(Cc2cccc(Cl)c2)C2CCS(=O)(=O)C2)cc(OC)c1OC (centres undefined) |  | inactive |
| NS(=O)(=O)c1cccc(NC(=S)NCc2ccc3c(c2)OCO3)c1 |  | inconclusive [inhibitor, single point] |
| CCN(CC)S(=O)(=O)c1ccc(C(=O)Nc2nnc(CSC)o2)cc1 |  | inactive |
| CC1CC(C)(C)CC2(C1)NC(=S)N(c1ccccc1)N2 (centres undefined) |  | active: 15.8 µM |
| Fc1ccc(CNC(=S)Nc2ccc(Cl)cc2Cl)cc1 |  | inconclusive [inhibitor, single point] |
| Cc1ccc(C(=O)COc2nc(C)cc(C)c2C#N)cc1 |  | inconclusive [inhibitor, single point] |
